Assay results published in publication PMC12040169 (PLOS Biology, 2025).
This is one part of the list.

tested on: T1, C. trachomatis L2/434/Bu expressing GFP (CTL2-GFP); set-up: species or system HeLa; C. trachomatis total inclusion area by high-content imaging, normalised to DMSO; details: total inclusion area; 28.5 h, 10 µM; inhibitor
T1 construct: L2/434/Bu GFP intracellular growth in HeLa cells
Summary of the method: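 Post-fluorescence-read fixation, DNA staining with Hoechst and high-content imaging; GFP inclusion area and number per well, and nuclei counts, used as proxies for bacterial growth and host viability.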

Row | Structure (SMILES) | % of control remaining
1 | N#Cc1c(N)ncnc1-c1ccccc1 [CBK102172] | 107.117
2 | O=C(CSc1nnc(-c2ccncc2)n1-c1ccccc1)N/N=C/c1ccccc1O [CBK262788] | 112.46
3 | CC1=NN(c2ccccc2F)C(=O)C1 [CBK067773] | 64.6955
4 | O=C(Nc1nccs1)c1ncoc1-c1cccs1 [CBK283975] | 90.178
5 | O=C1CCC(=O)N1CCN1CC(O)CC1c1cc(F)ccc1F (centres unmarked) [CBK306390] | 23.5085
6 | COc1ccc(Nc2cc(-c3cc4ccccc4o3)ncn2)c(C)c1 [CBK091040] | 82.3952
7 | CCOC(=O)CC(=O)N1CCC(c2onc3c2CC(C)CC3)CC1 (centres unmarked) [CBK285187] | 87.2666
8 | O=C(CC1CCCC1)NCCn1nc(-c2ccco2)ccc1=O [CBK283864] | 99.4534
9 | O=C(C1CCC1)N1CCC2(CC1)Nc1cccnc1-n1cccc12 [CBK284505] | 82.4664
10 | O=[N+]([O-])c1ccc(/C=N/c2cccc(-c3nc4ccccc4s3)c2)cc1 [CBK293918] | 94.8739
11 | CS(=O)(=O)N1CC2(CCN(CC3CCCCC3)CC2)c2ccccc21 [CBK084018] | 67.9141
12 | C=CCn1c(COc2ccc(Cl)cc2)nnc1SCC(=O)O [CBK263171] | 38.0157
13 | Cc1ccc(-c2ccc(CCC(=O)O)n2CC(=O)O)cc1 [CBK286922] | 111.24
14 | O=C(Nc1ccc2oc(-c3cccnc3)nc2c1)c1ccc(-c2cccc([N+](=O)[O-])c2)o1 [CBK262945] | 82.3327
15 | CC(CN1CCOCC1)OC(=O)c1ccco1 (centres unmarked) [CBK264606C] | 97.9072
16 | Cc1cn(S(=O)(=O)N(C)C)nc1-c1ccccc1 [CBK005210] | 130.042
17 | Cc1ccc(OC(C)C(=O)NNC(=O)c2ccc([N+](=O)[O-])cc2)cc1 (centres unmarked) [CBK269065] | 83.6559
18 | O=C(O)c1ccc(CN2CCOC[C@H]2c2nc(-c3ccc(F)cc3)c[nH]2)cc1 [CBK289304] | 83.6494
19 | Cc1cc(C(=O)O)c2[nH]c3c(c2c1)CCCC3 [CBK028885] | 83.3016
20 | O=C(CCn1cccn1)Nc1ccc(OC2CCCC2)cc1 [CBK281861] | 98.2046
21 | Cc1c(S(=O)(=O)NCCN(C)C)sc2ccc(C(C)C)cc12 [CBK170357] | 76.762
22 | Cc1nnc(CN2CCOc3ccc(Br)cc3C2)o1 [CBK304079] | 75.2296
23 | COc1ccc(C(=O)Nc2ccc(S(=O)(=O)N3CCN(C)CC3)cc2)cc1 [CBK267622] | 106.747
24 | O=C1Nc2cc(Cl)ccc2C(=O)N2CC[C@H](NS(=O)(=O)c3cccs3)[C@@H]12 [CBK289341] | 94.274
25 | COc1ccc(/C=C(/C#N)C(=O)Nc2cccc(C)c2C)cc1C(=O)O [CBK262751] | 107.875
26 | O=C(CCC(=O)c1ccccc1)NC1CCc2ccccc21 (centres unmarked) [CBK003351] | 116.393
27 | Cc1c(C(=O)N2CCCCC2)sc2nc(C(F)(F)F)nn12 [CBK006455] | 77.1267

Row | Structure (SMILES) | % of control remaining
28 | Cc1csc(NC(=O)CN2CCC(c3ccccc3F)CC2)n1 [CBK283569] | 94.9628
29 | CN1CCCC1CNCc1cn(-c2ccccc2)nc1-c1cccnc1 (centres unmarked) [CBK304490] | 19.9441
30 | Nc1ncc(-c2ccc(C(=O)N3CCOCC3)cc2)nc1-c1ccc(CCC(=O)O)cc1 [CBK126368] | 86.4871
31 | Cn1cnc(S(=O)(=O)N2CCC(C(=O)NC(c3ccccn3)c3cccs3)CC2)c1 (centres unmarked) [CBK060131] | 84.1282
32 | COc1ccc(S(=O)(=O)NC(C)C(=O)NCc2ccncc2)cc1C (centres unmarked) [CBK269347] | 58.9986
33 | COc1ccc2c(c1OC)C(=O)N1C2SC(C)(C)C1C(=O)O (centres unmarked) [CBK011479] | 97.854
34 | O=C(CN1C(=O)[C@H]2CCCN2c2ncccc21)NCCc1c[nH]c2ccccc12 [CBK286206] | 89.8434
35 | CSCCC(NC(=O)c1c(C)oc2c1CCCC2)C(=O)O (centres unmarked) [CBK264029] | 104.065
36 | CCOc1ccc(-c2nc(-c3cccc(NC(=O)c4ccccc4C(=O)O)c3)no2)cc1 [CBK299832] | 63.9968
37 | CC(C)(C)NCC(O)COc1ccc(Cl)cc1Cl (centres unmarked) [CBK025597C] | 31.4642
38 | O=C1c2ccc(S(=O)(=O)c3ccc4c(c3)C(=O)N(CCO)C4=O)cc2C(=O)N1CCO [CBK023065] | 91.8811
39 | CN(C)C(=O)C1(Cc2ccccc2-c2ccccc2)CCN(C(=O)c2cccc(F)c2)CC1 [CBK285675] | 100.746
40 | NC(=O)C1CN(C(=O)CN2CCCc3ccccc32)c2ccccc2O1 (centres unmarked) [CBK295163] | 104.094
41 | NC(=O)c1nc(-c2ccco2)nc2c1[nH]c(=O)n2-c1ccc(Cl)cc1 [CBK287545] | 84.7577
42 | Cn1c(=O)c2c(ncn2CC(=O)NCCOc2ccccc2)n(C)c1=O [CBK304654] | 50.6124
43 | COc1cccc(CNc2cccc(C(=O)O)c2)c1OCc1ccc(Cl)cc1Cl [CBK074424] | 103.651
44 | O=C(CN1CCOCC1)Nc1ccc(NC(=O)CN2CCOCC2)c(Cl)c1 [CBK264243] | 104.092
45 | Cc1nccn1CC(C)C(=O)NCCN(C)C1CCCCC1 (centres unmarked) [CBK282040] | 75.9673
46 | O=C(NC(Cc1cccs1)c1nccs1)c1ccncc1 (centres unmarked) [CBK285134] | 91.6556
47 | CC(=O)Nc1ccc(S(=O)(=O)N2CCC3(CC2)NC(=O)c2cc(-c4ccoc4)ccc2O3)cc1 [CBK115856] | 74.3487
48 | N#Cc1c(N)nc2c(c1-c1cccnc1)CCCC2 [CBK287885] | 125.985
49 | Cc1ccc(C(=O)c2coc3ccc(O)cc23)cc1 [CBK115557] | 107.465
50 | Cc1ccc2c(CC(=O)N(C)CCc3cn[nH]c3)coc2c1 [CBK283239] | 83.8188
51 | Cc1ccc(C2C(C(=O)c3sc(-c4ccccc4)nc3C)=C(O)C(=O)N2CCN(C)C)o1 (centres unmarked) [CBK234004] | 136.795
52 | O=C(Nc1ccc(Br)c2cccnc12)c1ccc(Cn2cc(Cl)cn2)o1 [CBK265893] | 83.9964
53 | CCc1nn(CC(=O)NC2CC2)c(=O)c2cc3sc(C)cc3n12 [CBK284099] | 82.3058
54 | O=C(Nc1ccc(N2CCN(C(=O)c3ccccc3F)CC2)cc1)c1nc[nH]n1 [CBK269497] | 76.4068

Row | Structure (SMILES) | % of control remaining
55 | O=C(Nc1ccc(S(=O)(=O)NCC2CCCO2)cc1)c1cc(-c2ccccc2)nc2ccccc12 (centres unmarked) [CBK267537] | 92.0434
56 | COc1cc(/C=C2\NC(=S)NC2=O)c(Cl)cc1O [CBK102003] | 70.3809
57 | O=C(CC1CCCC1)NCCn1nc(-c2cccs2)ccc1=O [CBK283841] | 86.5569
58 | CS(=O)(=O)N(Cc1ccc(Cl)cc1)c1ccc(C(=O)Nc2cccnc2)cc1 [CBK263334] | 64.0766
59 | CN(C)Cc1cc(CN(C)C)c(O)c(C(C)(C)C)n1 [CBK260969] | 102.281
60 | O=C(c1ccccc1F)N1CCC(O)(c2cccnc2F)CC1 [CBK284356] | 87.636
61 | CS(=O)(=O)N1CCCc2cc(-c3csc(-c4cnccn4)n3)ccc21 [CBK305239] | 21.5551
62 | CC(=O)N1CCCc2cc(C(O)CN3CCC(O)(c4ccc(F)cc4)CC3)ccc21 (centres unmarked) [CBK286481] | 76.0178
63 | COc1ccc(Cl)cc1N1CCN(C/C=C/c2ccccc2)CC1 [CBK126415] | 76.3422
64 | CN(Cc1ccccc1)c1nc2c(c(=O)n(C)c(=O)n2C)n1CCSc1ncccn1 [CBK269564] | 90.5036
65 | Cc1oc(C(=O)O)cc1CSCc1cc(C(=O)O)oc1C [CBK263275] | 101.935
66 | CSc1nnc(Cc2nnc(SC)n2-c2ccccc2)n1-c1ccccc1 [CBK267145] | 103.796
67 | c1ccc(Cn2cc(-c3nccnc3OC(c3ccccc3)c3ccccc3)cn2)cc1 [CBK107093] | 58.5113
68 | O=C(CN1CCOCC1)N1CCC(Cn2cncn2)(C2CCCCC2)CC1 [CBK136803] | 90.5734
69 | Cc1cc(Cl)c(OCCNCCO)c(Br)c1 [CBK265066G] | 82.6319
70 | Cc1ccc(SCCNC(=O)CSc2n[nH]c(=O)n2C2CC2)cc1 [CBK295605] | 84.7982
71 | Cc1cccc(C2(CNC(=O)C3COCCO3)CCCCC2)c1 (centres unmarked) [CBK305087] | 49.3319
72 | CCN1CCCC2(CCN(C(=O)c3ccoc3)C2)C1 (centres unmarked) [CBK132832] | 50.4899
73 | CN1C(=O)c2ccccc2C(=O)[C@@]2(C)CN(CC(C)(C)C)C[C@@H]12 [CBK283481] | 86.1218
74 | O=C(O)CCc1ccc(S(=O)(=O)Nc2ccc(N3CCCC3=O)cc2)cc1 [CBK295647] | 91.0791
75 | CC(=O)Nc1cccc(-c2cnc3[nH]c(=O)n([C@H](C)c4ccccc4)c3n2)c1 [CBK064188] | 92.2343
76 | Cc1cccc(CN2CC[C@@H]3[C@H](C2)[C@@H](c2ccsc2)CN3C(=O)c2ccccc2F)c1 [CBK285659] | 93.3672
77 | C(=N\N1CCOCC1)/c1ccc2c(c1)OCO2 [CBK026446] | 36.1429
78 | c1cnn(CCNc2nc3nonc3nc2N2CCCCC2)c1 [CBK306740] | 85.264
79 | O=S(=O)(NCCn1c(-c2ccncc2)nc2ccccc21)c1ccccc1 [CBK288578] | 75.6121
80 | COc1cccc(Cn2c(C3CCNCC3)cc3cccnc32)c1 [CBK285076] | 87.2074
